# Data: the supplement of paper PMC8728848
# The list shows a part of the results.
# Legend:
# Test in all cases: glycan array binding signal (z-score within array); higher = stronger binding
# Conditions in all cases: glycan notation: IUPAC condensed, linker removed
# Neu5Ac(a2-3)Gal(b1-4)Glc = molecular target: Neu5Ac(a2-3)Gal(b1-4)Glc
# In short: (§1)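 Glycan array binding is given as a within-array Z-score, which can be read as non-binding when negative. The arrays, 3228 of them, came from the Consortium for Functional Glycomics database and were retained only where the protein sequence was available. Z-scores were averaged across arrays of the same protein sequence at different concentrations or buffers and across linkers.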
# [1] = molecular target: Neu5Ac(a2-3)Gal(b1-4)GlcNAc
# In short: as §1
# [2] = molecular target: Neu5Ac(a2-3)Gal(b1-4)GlcNAc(b1-2)Man
# In short: as §1
# [3] = molecular target: Neu5Ac(a2-3)Gal(b1-4)GlcNAc(b1-2)Man(a1-3)[GlcNAc(b1-4)][Neu5Ac(a2-3)Gal(b1-4)GlcNAc(b1-2)Man(a1-6)]Man(b1-4)GlcNAc(b1-4)GlcNAc
# In short: as §1
# [4] = molecular target: Neu5Ac(a2-3)Gal(b1-4)GlcNAc(b1-2)Man(a1-3)[Neu5Ac(a2-3)Gal(b1-4)GlcNAc(b1-2)Man(a1-6)]Man(b1-4)GlcNAc(b1-4)GlcNAc
# In short: as §1
# [5] = molecular target: Neu5Ac(a2-3)Gal(b1-4)GlcNAc(b1-2)Man(a1-3)[Neu5Ac(a2-3)Gal(b1-4)GlcNAc(b1-2)Man(a1-6)]Man(b1-4)GlcNAc(b1-4)[Fuc(a1-6)]GlcNAc
# In short: as §1
# [6] = molecular target: Neu5Ac(a2-3)Gal(b1-4)GlcNAc(b1-2)Man(a1-3)[Neu5Ac(a2-6)Gal(b1-4)GlcNAc(b1-2)Man(a1-6)]Man(b1-4)GlcNAc(b1-4)GlcNAc
# In short: as §1
# [7] = molecular target: Neu5Ac(a2-3)Gal(b1-4)GlcNAc(b1-2)[Neu5Ac(a2-3)Gal(b1-4)GlcNAc(b1-4)]Man(a1-3)[GlcNAc(b1-4)][Neu5Ac(a2-3)Gal(b1-4)GlcNAc(b1-2)[Neu5Ac(a2-3)Gal(b1-4)GlcNAc(b1-6)]Man(a1-6)]Man(b1-4)GlcNAc(b1-4)GlcNAc
# In short: as §1
# [8] = molecular target: Neu5Ac(a2-3)Gal(b1-4)GlcNAc(b1-2)[Neu5Ac(a2-3)Gal(b1-4)GlcNAc(b1-4)]Man(a1-3)[GlcNAc(b1-4)][Neu5Ac(a2-3)Gal(b1-4)GlcNAc(b1-4)Man(a1-6)]Man(b1-4)GlcNAc(b1-4)GlcNAc
# In short: as §1
# [9] = molecular target: Neu5Ac(a2-3)Gal(b1-4)GlcNAc(b1-2)[Neu5Ac(a2-3)Gal(b1-4)GlcNAc(b1-6)]Man(a1-6)[Neu5Ac(a2-3)Gal(b1-4)GlcNAc(b1-2)Man(a1-3)]Man(b1-4)GlcNAc(b1-4)GlcNAc
# In short: as §1
# [10] = molecular target: Neu5Ac(a2-3)Gal(b1-4)GlcNAc(b1-2)[Neu5Ac(a2-3)Gal(b1-4)GlcNAc(b1-6)]Man(a1-6)[Neu5Ac(a2-3)Gal(b1-4)GlcNAc(b1-2)Man(a1-3)][GlcNAc(b1-4)]Man(b1-4)GlcNAc(b1-4)GlcNAc
# In short: as §1
# [11] = molecular target: Neu5Ac(a2-3)Gal(b1-4)GlcNAc(b1-3)Gal
# In short: as §1
# [12] = molecular target: Neu5Ac(a2-3)Gal(b1-4)GlcNAc(b1-3)Gal(b1-3)GlcNAc
# In short: as §1
# [13] = molecular target: Neu5Ac(a2-3)Gal(b1-4)GlcNAc(b1-3)Gal(b1-4)GlcNAc
# In short: as §1
# [14] = molecular target: Neu5Ac(a2-3)Gal(b1-4)GlcNAc(b1-3)Gal(b1-4)GlcNAc(b1-2)Man(a1-3)[Neu5Ac(a2-3)Gal(b1-4)GlcNAc(b1-3)Gal(b1-4)GlcNAc(b1-2)Man(a1-6)]Man(b1-4)GlcNAc(b1-4)GlcNAc
# In short: as §1
# [15] = molecular target: Neu5Ac(a2-3)Gal(b1-4)GlcNAc(b1-3)Gal(b1-4)GlcNAc(b1-3)Gal(b1-4)GlcNAc
# In short: as §1
# [16] = molecular target: Neu5Ac(a2-3)Gal(b1-4)GlcNAc(b1-3)Gal(b1-4)GlcNAc(b1-3)Gal(b1-4)GlcNAc(b1-2)Man(a1-3)[Neu5Ac(a2-3)Gal(b1-4)GlcNAc(b1-3)Gal(b1-4)GlcNAc(b1-3)Gal(b1-4)GlcNAc(b1-2)Man(a1-6)]GalNAc
# In short: as §1
# [17] = molecular target: Neu5Ac(a2-3)Gal(b1-4)GlcNAc(b1-3)Gal(b1-4)GlcNAc(b1-3)GalNAc
# In short: as §1
# [18] = molecular target: Neu5Ac(a2-3)Gal(b1-4)GlcNAc(b1-3)Gal(b1-4)GlcNAc(b1-3)[Neu5Ac(a2-3)Gal(b1-4)GlcNAc(b1-3)Gal(b1-4)GlcNAc(b1-6)]GalNAc
# In short: as §1
# [19] = molecular target: Neu5Ac(a2-3)Gal(b1-4)GlcNAc(b1-3)Gal(b1-4)GlcNAc(b1-6)[Gal(b1-3)]GalNAc
# In short: as §1
# [20] = molecular target: Neu5Ac(a2-3)Gal(b1-4)GlcNAc(b1-3)Gal(b1-4)[Fuc(a1-3)]GlcNAc
# In short: as §1
# [21] = molecular target: Neu5Ac(a2-3)Gal(b1-4)GlcNAc(b1-3)GalNAc
# In short: as §1
# [22] = molecular target: Neu5Ac(a2-3)Gal(b1-4)GlcNAc(b1-3)[Neu5Ac(a2-3)Gal(b1-4)GlcNAc(b1-6)]GalNAc
# In short: as §1
# [23] = molecular target: Neu5Ac(a2-3)Gal(b1-4)GlcNAc(b1-6)GalNAc
# In short: as §1
# [24] = molecular target: Neu5Ac(a2-3)Gal(b1-4)GlcNAc(b1-6)[Gal(b1-3)]GalNAc
# In short: as §1
# [25] = molecular target: Neu5Ac(a2-3)Gal(b1-4)GlcNAc(b1-6)[Neu5Ac(a2-3)Gal(b1-3)]GalNAc
# In short: as §1
# [26] = molecular target: Neu5Ac(a2-3)Gal(b1-4)GlcNAc6S
# In short: as §1
# [27] = molecular target: Neu5Ac(a2-3)Gal(b1-4)[Fuc(a1-3)]GlcNAc
# In short: as §1
# [28] = molecular target: Neu5Ac(a2-3)Gal(b1-4)[Fuc(a1-3)]GlcNAc(b1-2)Man
# In short: as §1
# [29] = molecular target: Neu5Ac(a2-3)Gal(b1-4)[Fuc(a1-3)]GlcNAc(b1-3)Gal
# In short: as §1
# [30] = molecular target: Neu5Ac(a2-3)Gal(b1-4)[Fuc(a1-3)]GlcNAc(b1-3)Gal(b1-4)GlcNAc
# In short: as §1
# [31] = molecular target: Neu5Ac(a2-3)Gal(b1-4)[Fuc(a1-3)]GlcNAc(b1-3)Gal(b1-4)[Fuc(a1-3)]GlcNAc(b1-3)Gal(b1-4)[Fuc(a1-3)]GlcNAc
# In short: as §1
# [32] = molecular target: Neu5Ac(a2-3)Gal(b1-4)[Fuc(a1-3)]GlcNAc(b1-3)GalNAc
# In short: as §1
# [33] = molecular target: Neu5Ac(a2-3)Gal(b1-4)[Fuc(a1-3)]GlcNAc(b1-6)[Gal(b1-3)]GalNAc
# In short: as §1
# [34] = molecular target: Neu5Ac(a2-3)Gal(b1-4)[Fuc(a1-3)]GlcNAc(b1-6)[Neu5Ac(a2-3)Gal(b1-3)]GalNAc
# In short: as §1
# [35] = molecular target: Neu5Ac(a2-3)Gal(b1-4)[Fuc(a1-3)]GlcNAc6S
# In short: as §1
# [36] = molecular target: Neu5Ac(a2-3)Gal6S(b1-4)GlcNAc
# In short: as §1
# [37] = molecular target: Neu5Ac(a2-3)Gal6S(b1-4)[Fuc(a1-3)]GlcNAc
# In short: as §1
binder,measurement,setting,value
PX14367A-bth-493-35-493 (Bacteroides thetaiotaomicron) (protein) VSSDQVAVAGNAERLFNGAWYNLFEYGTTYANIGYRALQCQDDMMASDVVSRPKYGFNSSYQFNDVAIPSDGRTSFAWYLIYKTIDNCNTAISIKGDSEELRQAQGQALALRAFCYLHLVQHYQFTYLKDKDAPCVPIYTEPTTSGTKPKGKSTVAQVYQQIFDDLNLAQDYLTNYVRKGDGQKFKPNTDVVNGLMARAYLLTGQWGEAAKAAEAARKGYSLMTTTAEYEGFNNISNKEWIWGSPQTLSQSDASYNFYYLDATYVGAYSSFMADPHLMDTFVKGDIRLPLFQWMREGYLGYKKFHMRSDDTADLVLMRSAEMYLIEAEAKVRDGVALDQAVAPLNTLRTARGVGNYDVTGKTKEQVIDEILMERRRELWGEGFGITDVLRNQKAVERMALSEDMQKTEVDCWQEGGSFAKRNPLGHWFLNFPDGKAFSANSSYYLYAIPEKEINANPNL,glycan array binding signal (z-score),Neu5Ac(a2-3)Gal(b1-4)Glc,0.072
same,glycan array binding signal (z-score),[1],-0.15
same,glycan array binding signal (z-score),[2],0.126
same,glycan array binding signal (z-score),[3],-0.343
same,glycan array binding signal (z-score),[4],0.083
same,glycan array binding signal (z-score),[5],-0.436
same,glycan array binding signal (z-score),[6],-0.4
same,glycan array binding signal (z-score),[7],0.838
same,glycan array binding signal (z-score),[8],-0.007
same,glycan array binding signal (z-score),[9],0.867
same,glycan array binding signal (z-score),[10],-0.621
same,glycan array binding signal (z-score),[11],-0.356
same,glycan array binding signal (z-score),[12],-0.168
same,glycan array binding signal (z-score),[13],-0.547
same,glycan array binding signal (z-score),[14],-0.364
same,glycan array binding signal (z-score),[15],-0.083
same,glycan array binding signal (z-score),[16],1.29
same,glycan array binding signal (z-score),[17],0.122
same,glycan array binding signal (z-score),[18],0.395
same,glycan array binding signal (z-score),[19],-0.037
same,glycan array binding signal (z-score),[20],-0.478
same,glycan array binding signal (z-score),[21],-0.667
same,glycan array binding signal (z-score),[22],0.867
same,glycan array binding signal (z-score),[23],-0.497
same,glycan array binding signal (z-score),[24],-0.625
same,glycan array binding signal (z-score),[25],-0.218
same,glycan array binding signal (z-score),[26],-0.316
same,glycan array binding signal (z-score),[27],-0.663
same,glycan array binding signal (z-score),[28],-0.443
same,glycan array binding signal (z-score),[29],-0.347
same,glycan array binding signal (z-score),[30],-0.21
same,glycan array binding signal (z-score),[31],0.154
same,glycan array binding signal (z-score),[32],0.004
same,glycan array binding signal (z-score),[33],-0.22
same,glycan array binding signal (z-score),[34],0.509
same,glycan array binding signal (z-score),[35],-0.473
same,glycan array binding signal (z-score),[36],-0.419
same,glycan array binding signal (z-score),[37],-0.209
